Screen size: about 340,000 compounds; about 12,000 (3.5%) were called active. The shares of active, inactive and inconclusive entries below differ from those in the screen. Calls follow the shape of the dose curve; as a rule, active = well fitted inhibition curve with a large enough effect; inconclusive = small, poorly fitted or top-dose-only effect, or another doubt; inactive = no such curve, though single readings can be large or run the other way. Potencies of inconclusive entries are left out as doubtful fits.
test: qHTS Assay for Inhibitors of Hepatitis C Virus (HCV); conditions: Huh7.5.1 HCVcc-Cre (HCVcc is cell-culture hepatitis C virus) infection, luciferase reporter, 44 h; activity change, negative = inhibition: at 41.8 µM (top of the series) unless noted
How it was run: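 Whole-lifecycle infectious HCVcc-Cre system; cells 1,000/well, compound then virus (~0.5 moi) added 4 h after plating, 44 h culture. Luciferase read 15 sec following 15 min substrate incubation, room temp.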
% is scaled to controls: 0 for no effect and ±100 for the full control effect; potency is read from the fitted curve at half-maximal effect; tags tell the direction and shape of the fitted curve.

| Structure (SMILES) | Potency | activity change, negative = inhibition |
| --- | --- | --- |
| CCOc1ccc(CCNC(=O)CCN2C(=O)COc3ccccc32)cc1OCC | inconclusive [inhibitor, full curve, poor fit] |  |
| CCN(C(=O)CC(C)C)c1nnc(Cn2nnc3ccccc32)s1 | active: 12.6 µM |  |
| CCCCNCCOCCOc1ccccc1-c1ccccc1 | inconclusive [inhibitor, partial curve] |  |
| O=c1c2ccccc2nc2ccc(NCc3cccs3)nn12 |  | inactive: 7.25% |
| CN1CCN(Cc2ccc(-c3ccc(Cl)cc3)o2)CC1 | active: 14.1 µM |  |
| Cc1nnsc1C(=O)NC1CCCc2c1cnn2-c1ccc(C(C)(C)C)cc1 (configuration not stated) | active: 1.58 µM |  |
| O=C(C1=C[C@@H](c2ccc(Br)cc2)C[C@@H](OCCCCO)O1)N1CCOCC1 |  | inactive: 19.8% |
| CCOC(=O)N1CCN(C(=O)CSCC(=O)Nc2nc(-c3ccc(Cl)s3)cs2)CC1 | active: 11.2 µM |  |
| Cc1ccc(NC(=O)CN(c2ccc(C)cc2)S(=O)(=O)c2cccc3nonc23)cc1 | inconclusive [inhibitor, full curve, poor fit] |  |
| COc1cccc(CNC(=O)c2cc(C)nc3ccccc23)c1 |  | inactive: -20.3% |
| CN(C(=O)c1ccc(Oc2ccc([N+](=O)[O-])cc2)cc1)C1CCCCC1 | active: 12.6 µM |  |
| CC(=O)Nc1cccc(Nc2nc(-c3cccs3)nc3ccccc23)c1 | active: 11.2 µM |  |
| CCOc1ccc(-c2nc(CN3CCCC(C(=O)N4CCOCC4)C3)c(C)o2)cc1 (configuration not stated) |  | inactive: -4.76% |
| C=CCOc1ccc(C(c2c(C(=O)O)[nH]c3ccccc23)c2c(C(=O)O)[nH]c3ccccc23)cc1 |  | inactive: 11.9% |
| O=[N+]([O-])c1cccc(NN=Nc2ccccc2)c1 | inconclusive [inhibitor, partial curve] |  |
| COc1cc(OC)cc(N2C(=O)CC(N3CCC(C(=O)N4CCCCC4)CC3)C2=O)c1 (configuration not stated) |  | inactive: 5.58% |
| Cc1ccccc1/C=N/NC(=O)c1ccc(-n2cnnn2)cc1 | inconclusive [inhibitor, single point] |  |
| CCOC(=O)c1cnc2ccc(C)cc2c1Sc1ccccc1C(=O)OC | inconclusive [inhibitor, single point] |  |
| COc1ccc(/C=C/C(=O)O)cc1 | active: 0.794 µM |  |
| O=C(NC(Cc1cccc(F)c1)C(=O)O)C1CCCCC1 (configuration not stated) | active: 2.82 µM |  |
| O=C(Cc1ccc(Cl)cc1)Nc1ccc(-c2cc3ccccc3oc2=O)c(Cl)c1 | inconclusive [inhibitor, partial curve] |  |

| Structure (SMILES) | Potency | activity change, negative = inhibition |
| --- | --- | --- |
| CC(=O)Oc1ccc(C(=O)Nc2ccccc2NC(=O)c2ccc(OC(C)=O)cc2)cc1 |  | inactive: -17% |
| COc1ccc(NC(=O)CN2CCN(CC(=O)Nc3ccccc3Cl)CC2)cc1Cl |  | inactive: 0.353% |
| CC(C)c1cccc(C(C)C)c1NC(=S)Nc1cccc(Cl)c1 |  | inactive: -3.48% |
| O=C(Cc1ccccc1)N/N=C/c1ccc2c(c1)OCO2 |  | inactive: 8.14% |
| O=C(CN1C(=O)c2cccnc2Oc2ccc(Cl)cc21)NCCCc1ccccc1 | active: 11.2 µM |  |
| CNC(=O)c1nn(-c2ccc(Cl)cc2)ccc1=O |  | inactive: 0.797% |
| CN(Cc1ccccc1)C(=O)c1cccc(NC(=O)Cc2cccc(NC(=O)C3CCN(C(=O)C4CC4)CC3)c2)c1 | inconclusive [inhibitor, single point] |  |
| COCCNC(=S)N1CCN(c2nc(-c3ccc(Cl)cc3)cs2)CC1 | active: 12.6 µM |  |
| CCOC(=O)c1ccc(-n2ncc(C(=O)OCC)c2N)cc1 | inconclusive [inhibitor, partial curve] |  |
| Cc1ccc(NC(=S)NCc2cccn2C)cc1 |  | inactive: -23.6% |
| S=C(NCc1ccc(Cl)cc1Cl)Nc1ccccc1 | inconclusive [inhibitor, single point] |  |
| O=C(CSc1nnc(-c2c[nH]c3ccccc23)n1-c1ccc(F)cc1)NCc1ccco1 | inconclusive [inhibitor, full curve, poor fit] |  |
| Cc1ccc(C(=O)N/C(=C\c2ccc(-c3ccc(Cl)cc3)o2)C(=O)NCCCN(C)C)cc1 | inconclusive [inhibitor, single point] |  |
| COc1ccccc1N(CC(=O)N(C)Cc1ccccc1)S(=O)(=O)c1cccs1 |  | inactive: -27.6% |
| Cc1ccc(-c2csc(NC(=O)c3c(C)noc3C)n2)cc1 | inconclusive [inhibitor, single point] |  |
| COc1cccc(CNC(=O)c2ccc(CS(=O)(=O)Cc3ccc(C)cc3)o2)c1 |  | inactive: 6.49% |
| NC(=O)c1ccsc1NC(=O)COC(=O)c1ccccn1 |  | inactive: 9.29% |
| CN(CC(=O)Nc1cccc(F)c1)C(=O)CCNC(=O)c1ccco1 |  | inactive: 16.1% |
| O=C(Cn1c(=O)c2cccn2c2ccccc21)Nc1ccc(F)cc1F | inconclusive [inhibitor, single point] |  |
| N#CCn1cnc2sc(-c3ccccc3)cc2c1=O |  | inactive: 9.52% |
| CCc1c(C)nc2ncnn2c1NCCc1ccccc1 | active: 28.2 µM |  |

| Structure (SMILES) | Potency | activity change, negative = inhibition |
| --- | --- | --- |
| Cc1nc2c(oc3ccccc32)c(=O)o1 |  | inactive: 11.3% |
| CC(=O)c1ccc(NC(=O)C(C)Sc2nnc(C3CC3)n2C2CC2)cc1 (configuration not stated) |  | inactive: -10.2% |
| CC1(c2ccccc2)ON(c2ccccc2C(F)(F)F)C1=O (configuration not stated) |  | inactive: 0.993% |
| CC(C)NCC(=O)NC12CC3CC(CC(C3)C1)C2 |  | inactive: 27.6% |
| CC1CCCCN1S(=O)(=O)c1cnc(Cl)c(Br)c1 (configuration not stated) | inconclusive [inhibitor, single point] |  |
| CC(C)(C)c1csc(NC(=O)Cc2ccc(S(=O)(=O)N3CCOCC3)s2)n1 | inconclusive [inhibitor, partial curve, poor fit] |  |
| CCOC(=O)c1ccccc1NC(=S)N1CCC(C)CC1 |  | inactive: -24.4% |
| S=C=Nc1cccc(C2(N3CCCCC3)CCCCC2)c1 | inconclusive [inhibitor, single point] |  |
| CCCn1c(N)c(Sc2ccc(C)cc2)c(=O)n(CCC)c1=O |  | inactive: -20% |
| O=C(N/N=C/c1ccc([N+](=O)[O-])s1)c1ccncc1 | inconclusive [inhibitor, single point] |  |
| CC(C)c1ccc(/C=C/C(=O)Nc2nncs2)cc1 | inconclusive [inhibitor, single point] |  |
| CCc1nc2ccccc2c2nc3ccccc3n12 | inconclusive [inhibitor, partial curve] |  |
| COc1ccc(OCC(=O)Nc2cc(OC)ccc2N2CCCCC2)cc1 | inconclusive [inhibitor, partial curve] |  |
| CC(C)c1[nH]nc2c1C(c1cccs1)C(C#N)=C(N)O2 (configuration not stated) |  | inactive: -5.68% |
| CCOc1ccccc1CNS(=O)(=O)c1cc(-c2cc(C)no2)ccc1OC | inconclusive [inhibitor, partial curve] |  |
| Cc1ccc(NC(=O)NC2C(NC(=O)Nc3ccc(C)cc3)N(C)C(=O)N2C)cc1 (configuration not stated) |  | inactive: -0.935% |
| Cc1ccc(-c2nc(N)sc2C)cc1 |  | inactive: -5.9% |
| O=C(Cc1ccc(-c2ccccc2)cc1)NC(c1ccccc1)c1ccccc1 | inconclusive [inhibitor, single point] |  |
| CC(C)(C)[C@H]1C=C(C(=O)N2CCN(Cc3ccccc3)CC2)O[C@@H](OCCCCO)C1 |  | inactive: 10.7% |
| COc1ccccc1N1CCN(c2ccc3ccccc3n2)CC1 | inconclusive [inhibitor, single point] |  |
| CCOC(=O)C1CCN(C(=O)COC(=O)c2ccc3[nH]c4c(c3c2)CCCC4)CC1 | inconclusive [inhibitor, partial curve] |  |

| Structure (SMILES) | Potency | activity change, negative = inhibition |
| --- | --- | --- |
| COC(=O)c1[nH]c2ccccc2c1NC(=O)CN1CCN(Cc2ccc3c(c2)OCO3)CC1 | inconclusive [inhibitor, partial curve] |  |
| Cc1ccc2[nH]c(=O)c(CN(Cc3cccs3)S(=O)(=O)c3ccc4c(c3)OCCO4)cc2c1 |  | inactive: 1.92% |
| COc1ccccc1NC(=O)C(C)N(C)CC(=O)Nc1cccc2ccccc12 (configuration not stated) |  | inactive: -16.4% |
| CCS(=O)(=O)n1nc(-c2ccc(C)cc2)nc1N |  | inactive: -0.768% |
| Clc1ccc(-n2cnc3c(Cl)ncnc32)cc1Cl | inconclusive [inhibitor, single point] |  |
| CCCCCN(C(=O)NC(=O)Nc1ccc(C)cc1C)S(C)(=O)=O |  | inactive: 11.8% |
| Cc1ccc(C(=O)NC(C)c2ccc(-n3ccnc3)cc2)cc1S(=O)(=O)N1CCOCC1 (configuration not stated) | inconclusive [inhibitor, full curve, poor fit] |  |
| CC/C(=C\C(=O)c1ccncc1)Nc1ccc(O)cc1 | inconclusive [inhibitor, partial curve, poor fit] |  |
| CC(=O)c1sc(N/N=C\c2ccc(Br)cc2)nc1C |  | inactive: -17.2% |
| COc1ccc(NC(=O)c2cccc(S(=O)(=O)NCc3ccco3)c2)c(OC)c1 | inconclusive [inhibitor, single point] |  |
| O=C(Nc1cccc(-c2cccc(Cl)c2)c1)C1CCN(Cc2ccc(CO)o2)CC1 | active: 10 µM |  |
| Cc1oc2c(CN3CCOCC3)c(O)ccc2c(=O)c1-c1ccc(Cl)cc1 |  | inactive: 8.66% |
| CCn1nnnc1NC(=O)c1cc(Cl)c(OC)c(Cl)c1 |  | inactive: -10.1% |
| C/C(=N\NC(=O)c1ccc(CN2CCc3ccccc3C2)cc1)c1ccccc1O | active: 5.62 µM |  |
| CC(C)CN1C(=O)c2ccc(C(=O)Nc3ccccc3C(=O)O)cc2C1=O |  | inactive: 17.9% |
| CC(=O)Nc1ccccc1-c1nc2ccc(C(=O)N3CCN(c4cc(C)ccc4C)CC3)cc2[nH]c1=O |  | inactive: 15.9% |
| CCOCCCNC(=S)N1CCN(c2nc(-c3ccccc3)cs2)CC1 | active: 10 µM |  |
| CNc1sc(C(=O)c2cccs2)c(N)c1-c1nc2ccccc2s1 | inconclusive [inhibitor, single point] |  |
| O=C(NNC(=O)c1ccccc1Cl)c1ccc2c(c1)OCCO2 |  | inactive: 10.5% |

Source: PubChem BioAssay AID651820 (National Center for Advancing Translational Sciences (NCATS), 2012)
